The record followed here is a collection of fitness landscapes (doi:10.1126/science.1257360).

The labels stand for the following.
B1: PhoQ; a variant is named by its letters at X, in order, P23837 (parent)
chain: MKKLLRLFFPLSLRVRFLLATAAVVLVLSLAYGMVALIGYSVSFDKTTFRLLRGESNLFYTLAKWENNKLHVELPENIDKQSPTMTLIYDENGQLLWAQRDVPWLMKMIQPDWLKSNGFHEIEADVNDTSLLLSGDHSIQQQLQEVREDDDDAEMTHSVAVNVYPATSRMPKLTIVVVDTIPVELKSSYMVWSWFIYVLSANLLLVIPLLWVAAWWSLRPIEALAKEVRELEEHNRELLNPATTRELTSLVRNLNRLLKSERERYDKYRTTLTDLTHSLKTPLXXLQXXLRSLRSEKMSVSDAEPVMLEQISRISQQIGYYLHRASMRGGTLLSRELHPVAPLLDNLTSALNKVYQRKGVNISLDISPEISFVGEQNDFVEVMGNVLDNACKYCLEFVEISARQTDEHLYIVVEDDGPGIPLSKREVIFDRGQRVDTLRPGQGVGLAVAREITEQYEGKIVAGESMLGGARMEVIFGRQHSAPKDE

Some of the results follow.

In this test the parent is B1. Nature of the test: enrichment ratio after two sorts for PhoP signalling (ratio (wild type AVST 3.29)); higher = more functional. Particulars: with PhoP (E. coli).
Consider SLDI, for which the enrichment ratio is not above 0.25.

For NQHE, the enrichment ratio was not above 0.25.

On to DTYN, for which the enrichment ratio is not above 0.25.

Consider IAVQ, for which the enrichment ratio was not above 0.25.

TGVF: the enrichment ratio came out at 1.12.

With WRYW, the enrichment ratio was not above 0.25.

For the variant AFSN, the enrichment ratio is not above 0.25.

For ESCD, the enrichment ratio was not above 0.25.

On to SDWL, for which the enrichment ratio was not above 0.25.

With AGLL, the enrichment ratio turned out to be 14.6.

As to ISPN, the enrichment ratio is not above 0.25.

For the variant SYFH, the enrichment ratio was not above 0.25.

Turning to CSVF, the enrichment ratio is not above 0.25.

PADG: the enrichment ratio was not above 0.25.

Turning to PANC, the enrichment ratio was not above 0.25.

In the case of QGNP, the enrichment ratio was not above 0.25.

Take NPSF: the enrichment ratio was not above 0.25.

For the variant TDVY, the enrichment ratio was 1.47.

As to HEQL, the enrichment ratio is not above 0.25.

RYWS: the enrichment ratio is not above 0.25.

For the variant GNVE, the enrichment ratio is not above 0.25.

For KNNE, the enrichment ratio was not above 0.25.

For TFWA, the enrichment ratio is not above 0.25.

As to IPRM, the enrichment ratio was not above 0.25.

For LVAC, the enrichment ratio was not above 0.25.

Turning to MDSF, the enrichment ratio was not above 0.25.

VTCF: the enrichment ratio amounted to 0.49.

In the case of GLYC, the enrichment ratio was not above 0.25.

For RAPW, the enrichment ratio was not above 0.25.

For MCGG, the enrichment ratio stood at 6.24.

As for WRRC, the enrichment ratio was not above 0.25.

MNHC: the enrichment ratio was not above 0.25.

Take KYFI: the enrichment ratio was not above 0.25.

As for NNYC, the enrichment ratio was not above 0.25.

Regarding ITKF, the enrichment ratio is not above 0.25.

In the case of SVDK, the enrichment ratio was not above 0.25.

With TWEM, the enrichment ratio was found to be 6.35.

Take KEFP: the enrichment ratio is not above 0.25.

For YTDC, the enrichment ratio is not above 0.25.

Consider LSWD, for which the enrichment ratio is not above 0.25.

Turning to RCIA, the enrichment ratio was not above 0.25.

For the variant QYTI, the enrichment ratio was not above 0.25.

On to NFRL, for which the enrichment ratio is not above 0.25.

As to WHHI, the enrichment ratio was not above 0.25.

Turning to AMCM, the enrichment ratio was determined as 2.64.

As to TFQV, the enrichment ratio is not above 0.25.

Consider FLMF, for which the enrichment ratio was not above 0.25.

As to VKMM, the enrichment ratio was not above 0.25.

Take TLCD: the enrichment ratio was not above 0.25.

As to AAHM, the enrichment ratio was not above 0.25.

On to LGHC, for which the enrichment ratio was not above 0.25.

Turning to MIPR, the enrichment ratio was not above 0.25.

As to TAYG, the enrichment ratio is 6.62.

With FCTF, the enrichment ratio was not above 0.25.

Regarding KARM, the enrichment ratio is not above 0.25.

NHFS: the enrichment ratio was not above 0.25.

On to DEPT, for which the enrichment ratio is not above 0.25.

With QQST, the enrichment ratio was not above 0.25.

With KLAD, the enrichment ratio is not above 0.25.

For RMFI, the enrichment ratio was not above 0.25.

Regarding YGRG, the enrichment ratio is not above 0.25.

As for WPQK, the enrichment ratio was not above 0.25.

In the case of PSGV, the enrichment ratio was not above 0.25.

Turning to DASH, the enrichment ratio was not above 0.25.

On to PEGV, for which the enrichment ratio is not above 0.25.

For EIRG, the enrichment ratio is not above 0.25.

Consider EDYA, for which the enrichment ratio is not above 0.25.

Turning to TYRC, the enrichment ratio is not above 0.25.

Take MPIG: the enrichment ratio was not above 0.25.

In the case of VMRQ, the enrichment ratio is not above 0.25.

Regarding YQQN, the enrichment ratio was not above 0.25.

Regarding LLPN, the enrichment ratio is not above 0.25.

With PVAH, the enrichment ratio is not above 0.25.

Consider DMGW, for which the enrichment ratio was 5.27.

With CSWD, the enrichment ratio was not above 0.25.

Consider VQSY, for which the enrichment ratio is not above 0.25.

Turning to ICTM, the enrichment ratio is not above 0.25.

With QFGL, the enrichment ratio was not above 0.25.

With QSFC, the enrichment ratio is 2.23.

As to WWFQ, the enrichment ratio was not above 0.25.

Turning to HQWH, the enrichment ratio was not above 0.25.

Regarding TKCL, the enrichment ratio amounted to 14.6.

With MLKP, the enrichment ratio is not above 0.25.

Regarding HGHA, the enrichment ratio was not above 0.25.

Turning to YEGM, the enrichment ratio is not above 0.25.

As to MPEP, the enrichment ratio was not above 0.25.

As for KCWH, the enrichment ratio was not above 0.25.

In the case of AWHP, the enrichment ratio is not above 0.25.

Consider MNLV, for which the enrichment ratio is 4.5.

As for MTSQ, the enrichment ratio came to 1.32.

With IWNN, the enrichment ratio is not above 0.25.

Take SEWE: the enrichment ratio is not above 0.25.

For FTWH, the enrichment ratio is not above 0.25.

Take NLYK: the enrichment ratio is not above 0.25.

As for DADQ, the enrichment ratio was not above 0.25.

For the variant SGQW, the enrichment ratio is not above 0.25.

Turning to SFDS, the enrichment ratio is not above 0.25.

HKDW: the enrichment ratio was not above 0.25.

FMPA: the enrichment ratio is not above 0.25.

Regarding DFQM, the enrichment ratio is not above 0.25.

Consider DPDE, for which the enrichment ratio was not above 0.25.

In the case of NDAF, the enrichment ratio was not above 0.25.

For the variant AKAT, the enrichment ratio came out at 3.68.

With LSHY, the enrichment ratio is 0.255.

On to MYTS, for which the enrichment ratio was not above 0.25.

DWLK: the enrichment ratio was not above 0.25.

With TVVN, the enrichment ratio is not above 0.25.

Turning to GCPW, the enrichment ratio was not above 0.25.

With HCEK, the enrichment ratio was not above 0.25.

With ICKN, the enrichment ratio was not above 0.25.

Consider QRSS, for which the enrichment ratio was not above 0.25.

In the case of THCI, the enrichment ratio turned out to be 7.06.

For the variant YSRD, the enrichment ratio is not above 0.25.

Turning to RAKQ, the enrichment ratio was not above 0.25.

On to DIFQ, for which the enrichment ratio was not above 0.25.

Consider NHAP, for which the enrichment ratio is not above 0.25.

Turning to AGHF, the enrichment ratio was not above 0.25.

For the variant KILQ, the enrichment ratio was not above 0.25.

For the variant SDEV, the enrichment ratio was not above 0.25.

Consider QDWF, for which the enrichment ratio is not above 0.25.

Consider MARS, for which the enrichment ratio was not above 0.25.

On to DTRA, for which the enrichment ratio turned out to be 2.13.

For NRDY, the enrichment ratio is not above 0.25.

For the variant DQED, the enrichment ratio is not above 0.25.

For the variant RNFV, the enrichment ratio is not above 0.25.

On to CTAT, for which the enrichment ratio was not above 0.25.

SVPF: the enrichment ratio was not above 0.25.

As to WGVA, the enrichment ratio is not above 0.25.

In the case of PAWS, the enrichment ratio is not above 0.25.

MAAY: the enrichment ratio is not above 0.25.

EHHA: the enrichment ratio was not above 0.25.

For the variant QRYR, the enrichment ratio was not above 0.25.

Turning to SSKM, the enrichment ratio is not above 0.25.

Consider AANN, for which the enrichment ratio was not above 0.25.

As for EEIR, the enrichment ratio is not above 0.25.

With NYTA, the enrichment ratio was not above 0.25.

For the variant SWFH, the enrichment ratio was not above 0.25.

Regarding YMTG, the enrichment ratio is not above 0.25.

Turning to AHFH, the enrichment ratio was not above 0.25.

As for HDNF, the enrichment ratio was not above 0.25.

For the variant LQQQ, the enrichment ratio was not above 0.25.

For TKNI, the enrichment ratio worked out at 13.3.

Consider NTPT, for which the enrichment ratio is not above 0.25.

For the variant SILN, the enrichment ratio amounted to 8.2.

On to KGGH, for which the enrichment ratio is not above 0.25.

NHPD: the enrichment ratio is not above 0.25.

Consider YNCF, for which the enrichment ratio is not above 0.25.

As for THLQ, the enrichment ratio was 5.68.

LYRM: the enrichment ratio amounted to 0.329.

For the variant TIKH, the enrichment ratio was not above 0.25.

Take QMYK: the enrichment ratio was not above 0.25.

Take RNNS: the enrichment ratio is not above 0.25.

For QNTP, the enrichment ratio is not above 0.25.
